Reference: patent publication US20260034092A1, “BIOCIDAL COMPOSITION” (priority 2022, published 2026)

Tested on: Pseudomonas aeruginosa ATCC 15 442, Escherichia coli K12 CECT 433, Staphylococcus aureus ATCC 6 538, Enterococcus hirae ATCC 10 541
Conditions: after 10 days of treatment on the sterile plastic container; calculated on the total of all study microorganisms

Compound: CC(O)C(=O)O (stereo not shown) [Treatment A, lactic acid]
- efficiency percentage, Bactericide activity: 46.9%
